The supplement of paper PMC10724272
MIC of invasive clinical C. tropicalis isolates, CLSI broth microdilution (fluconazole 0.12-256 mg/L, up to 1,024 for the azole-resistant cluster and its neighbour group; other ranges not stated); higher = less susceptible. Call: susceptible or wild type [S] / resistant or non-wild type [R] by CLSI breakpoints or cut-offs; intermediate and dose-dependent carry no call. '<=' and '>=' at the end values are inferred; the source marks only some of them. Isolates are numbered anew.

Legend:
Assay in all cases: CLSI broth microdilution.
[1] = compound: C[C@@H]1[C@H](O)[C@@H](C)/C=C/C=C/C=C/C=C/C=C/C=C/C=C/[C@H](O[C@@H]2O[C@H](C)[C@@H](O)[C@H](N)[C@@H]2O)C[C@@H]2O[C@](O)(C[C@@H](O)C[C@@H](O)[C@H](O)CC[C@@H](O)C[C@@H](O)CC(=O)O[C@H]1C)C[C@H](O)[C@H]2C(=O)O [amphotericin B]
[2] = compound: C[C@@H](c1ncncc1F)[C@](O)(Cn1cncn1)c1ccc(F)cc1F [voriconazole]
[3] = compound: CCCCCOc1ccc(-c2ccc(-c3ccc(C(=O)N[C@H]4C[C@@H](O)[C@@H](O)NC(=O)[C@@H]5[C@@H](O)[C@@H](C)CN5C(=O)[C@H]([C@@H](C)O)NC(=O)[C@H]([C@H](O)[C@@H](O)c5ccc(O)cc5)NC(=O)[C@@H]5C[C@@H](O)CN5C(=O)[C@H]([C@@H](C)O)NC4=O)cc3)cc2)cc1 [anidulafungin]
[4] = compound: CCCCCOc1ccc(-c2cc(-c3ccc(C(=O)N[C@H]4C[C@@H](O)[C@@H](O)NC(=O)[C@@H]5[C@@H](O)[C@@H](C)CN5C(=O)[C@H]([C@H](O)CC(N)=O)NC(=O)[C@H]([C@H](O)[C@@H](O)c5ccc(O)c(OS(=O)(=O)O)c5)NC(=O)[C@@H]5C[C@@H](O)CN5C(=O)[C@H]([C@@H](C)O)NC4=O)cc3)no2)cc1 [micafungin]
[5] = compound: Nc1[nH]c(=O)ncc1F [flucytosine]
[6] = compound: OC(Cn1cncn1)(Cn1cncn1)c1ccc(F)cc1F [fluconazole]
[7] = compound: CCC(C)n1ncn(-c2ccc(N3CCN(c4ccc(OCC5COC(Cn6cncn6)(c6ccc(Cl)cc6Cl)O5)cc4)CC3)cc2)c1=O [itraconazole]
[8] = compound: CC[C@H](C)C[C@H](C)CCCCCCCCC(=O)N[C@H]1C[C@@H](O)[C@@H](NCCN)NC(=O)[C@@H]2[C@@H](O)CCN2C(=O)[C@H]([C@H](O)CCN)NC(=O)[C@H]([C@H](O)[C@@H](O)c2ccc(O)cc2)NC(=O)[C@@H]2C[C@@H](O)CN2C(=O)[C@H]([C@@H](C)O)NC1=O [caspofungin]
[9] = compound: CC[C@@H]([C@H](C)O)n1ncn(-c2ccc(N3CCN(c4ccc(OC[C@@H]5CO[C@@](Cn6cncn6)(c6ccc(F)cc6F)C5)cc4)CC3)cc2)c1=O [posaconazole]

Test System	MIC [1]	MIC [2]	MIC [3]	MIC [4]	MIC [5]	MIC [6]	MIC [7]	MIC [8]	MIC [9]
Candida tropicalis isolate 207 (ERG11 copies: 2, Erg11p: Y132F, S154F (homozygous))	1 mg/L [S]	2 mg/L [R]	≤ 0.015 mg/L [S]	0.015 mg/L [S]	≤ 0.06 mg/L [S]	64 mg/L [R]	0.25 mg/L [S]	0.03 mg/L [S]	0.25 mg/L [S]
Candida tropicalis isolate 208 (ERG11 copies: 2, Erg11p: no key change)	0.5 mg/L [S]	0.06 mg/L [S]	≤ 0.015 mg/L [S]	0.015 mg/L [S]	≤ 0.06 mg/L [S]	1 mg/L [S]	0.12 mg/L [S]	0.015 mg/L [S]	0.12 mg/L [S]
Candida tropicalis isolate 209 (ERG11 copies: 2, Erg11p: no key change)	1 mg/L [S]	0.12 mg/L [S]	0.12 mg/L [S]	0.03 mg/L [S]	≤ 0.06 mg/L [S]	1 mg/L [S]	0.25 mg/L [S]	0.03 mg/L [S]	0.25 mg/L [S]
Candida tropicalis isolate 210 (ERG11 copies: 2, Erg11p: no key change)	0.25 mg/L [S]	0.25 µg/mL	0.12 mg/L [S]	0.06 mg/L [S]	≤ 0.06 mg/L [S]	2 mg/L [S]	0.5 mg/L [S]	0.06 mg/L [S]	0.5 mg/L [R]
Candida tropicalis isolate 211 (ERG11 copies: 2, Erg11p: no key change)	1 mg/L [S]	0.25 µg/mL	0.06 mg/L [S]	0.03 mg/L [S]	0.12 mg/L [S]	2 mg/L [S]	0.25 mg/L [S]	0.03 mg/L [S]	0.25 mg/L [S]
Candida tropicalis isolate 212 (ERG11 copies: 2, Erg11p: no key change)	1 mg/L [S]	1 mg/L [R]	≤ 0.015 mg/L [S]	0.015 mg/L [S]	≤ 0.06 mg/L [S]	8 mg/L [R]	0.5 mg/L [S]	0.015 mg/L [S]	1 mg/L [R]
Candida tropicalis isolate 213 (ERG11 copies: 2, Erg11p: no key change)	1 mg/L [S]	0.06 mg/L [S]	0.03 mg/L [S]	0.015 mg/L [S]	≤ 0.06 mg/L [S]	1 mg/L [S]	0.12 mg/L [S]	0.03 mg/L [S]	0.12 mg/L [S]
Candida tropicalis isolate 214 (ERG11 copies: 2, Erg11p: no key change)	1 mg/L [S]	0.06 mg/L [S]	≤ 0.015 mg/L [S]	0.03 mg/L [S]	≤ 0.06 mg/L [S]	2 mg/L [S]	0.12 mg/L [S]	0.03 mg/L [S]	0.12 mg/L [S]
Candida tropicalis isolate 215 (ERG11 copies: 2, Erg11p: Y257H (homozygous))	0.5 mg/L [S]	0.25 µg/mL	0.06 mg/L [S]	0.03 mg/L [S]	≤ 0.06 mg/L [S]	4 µg/mL	0.5 mg/L [S]	0.03 mg/L [S]	0.5 mg/L [R]
Candida tropicalis isolate 216 (ERG11 copies: 2, Erg11p: no key change)	1 mg/L [S]	0.06 mg/L [S]	0.06 mg/L [S]	0.03 mg/L [S]	≤ 0.06 mg/L [S]	1 mg/L [S]	0.12 mg/L [S]	0.03 mg/L [S]	0.12 mg/L [S]
Candida tropicalis isolate 217 (ERG11 copies: 2, Erg11p: no key change)	0.5 mg/L [S]	0.25 µg/mL	0.03 mg/L [S]	0.03 mg/L [S]	≤ 0.06 mg/L [S]	2 mg/L [S]	0.25 mg/L [S]	0.03 mg/L [S]	0.25 mg/L [S]
Candida tropicalis isolate 218 (ERG11 copies: 2, Erg11p: no key change)	1 mg/L [S]	0.12 mg/L [S]	0.12 mg/L [S]	0.06 mg/L [S]	≤ 0.06 mg/L [S]	2 mg/L [S]	0.5 mg/L [S]	0.03 mg/L [S]	0.25 mg/L [S]
Candida tropicalis isolate 219 (ERG11 copies: 2, Erg11p: no key change)	1 mg/L [S]	0.06 mg/L [S]	0.06 mg/L [S]	0.03 mg/L [S]	≤ 0.06 mg/L [S]	1 mg/L [S]	0.12 mg/L [S]	0.06 mg/L [S]	0.12 mg/L [S]
Candida tropicalis isolate 220 (ERG11 copies: 2, Erg11p: no key change)	1 mg/L [S]	0.06 mg/L [S]	≤ 0.015 mg/L [S]	0.015 mg/L [S]	≤ 0.06 mg/L [S]	1 mg/L [S]	0.25 mg/L [S]	0.03 mg/L [S]	0.25 mg/L [S]
Candida tropicalis isolate 221 (ERG11 copies: 2, Erg11p: no key change)	0.5 mg/L [S]	0.25 µg/mL	0.12 mg/L [S]	0.03 mg/L [S]	≤ 0.06 mg/L [S]	4 µg/mL	0.25 mg/L [S]	0.03 mg/L [S]	0.25 mg/L [S]
Candida tropicalis isolate 222 (ERG11 copies: 5, Erg11p: Y132F, S154F, P397S (heterozygous))	1 mg/L [S]	≥ 8 mg/L [R]	0.06 mg/L [S]	0.03 mg/L [S]	≤ 0.06 mg/L [S]	256 mg/L [R]	1 mg/L [R]	0.06 mg/L [S]	1 mg/L [R]
Candida tropicalis isolate 223 (ERG11 copies: 8, Erg11p: Y132F, S154F (heterozygous))	0.5 mg/L [S]	≥ 8 mg/L [R]	0.03 mg/L [S]	0.03 mg/L [S]	≤ 0.06 mg/L [S]	256 mg/L [R]	0.5 mg/L [S]	0.03 mg/L [S]	0.5 mg/L [R]
Candida tropicalis isolate 224 (ERG11 copies: 2, Erg11p: no key change)	1 mg/L [S]	0.12 mg/L [S]	0.25 mg/L [S]	0.03 mg/L [S]	≤ 0.06 mg/L [S]	2 mg/L [S]	0.12 mg/L [S]	0.12 mg/L [S]	0.12 mg/L [S]
